Experimental findings from article PMC4931317, “UtpA and UtpB chaperone nascent pre-ribosomal RNA and U3 snoRNA to initiate eukaryotic ribosome assembly” (Nature Communications, 2016) are described below.

Amino acid sequences for entries named in this document (tags omitted).
UniProt P42945: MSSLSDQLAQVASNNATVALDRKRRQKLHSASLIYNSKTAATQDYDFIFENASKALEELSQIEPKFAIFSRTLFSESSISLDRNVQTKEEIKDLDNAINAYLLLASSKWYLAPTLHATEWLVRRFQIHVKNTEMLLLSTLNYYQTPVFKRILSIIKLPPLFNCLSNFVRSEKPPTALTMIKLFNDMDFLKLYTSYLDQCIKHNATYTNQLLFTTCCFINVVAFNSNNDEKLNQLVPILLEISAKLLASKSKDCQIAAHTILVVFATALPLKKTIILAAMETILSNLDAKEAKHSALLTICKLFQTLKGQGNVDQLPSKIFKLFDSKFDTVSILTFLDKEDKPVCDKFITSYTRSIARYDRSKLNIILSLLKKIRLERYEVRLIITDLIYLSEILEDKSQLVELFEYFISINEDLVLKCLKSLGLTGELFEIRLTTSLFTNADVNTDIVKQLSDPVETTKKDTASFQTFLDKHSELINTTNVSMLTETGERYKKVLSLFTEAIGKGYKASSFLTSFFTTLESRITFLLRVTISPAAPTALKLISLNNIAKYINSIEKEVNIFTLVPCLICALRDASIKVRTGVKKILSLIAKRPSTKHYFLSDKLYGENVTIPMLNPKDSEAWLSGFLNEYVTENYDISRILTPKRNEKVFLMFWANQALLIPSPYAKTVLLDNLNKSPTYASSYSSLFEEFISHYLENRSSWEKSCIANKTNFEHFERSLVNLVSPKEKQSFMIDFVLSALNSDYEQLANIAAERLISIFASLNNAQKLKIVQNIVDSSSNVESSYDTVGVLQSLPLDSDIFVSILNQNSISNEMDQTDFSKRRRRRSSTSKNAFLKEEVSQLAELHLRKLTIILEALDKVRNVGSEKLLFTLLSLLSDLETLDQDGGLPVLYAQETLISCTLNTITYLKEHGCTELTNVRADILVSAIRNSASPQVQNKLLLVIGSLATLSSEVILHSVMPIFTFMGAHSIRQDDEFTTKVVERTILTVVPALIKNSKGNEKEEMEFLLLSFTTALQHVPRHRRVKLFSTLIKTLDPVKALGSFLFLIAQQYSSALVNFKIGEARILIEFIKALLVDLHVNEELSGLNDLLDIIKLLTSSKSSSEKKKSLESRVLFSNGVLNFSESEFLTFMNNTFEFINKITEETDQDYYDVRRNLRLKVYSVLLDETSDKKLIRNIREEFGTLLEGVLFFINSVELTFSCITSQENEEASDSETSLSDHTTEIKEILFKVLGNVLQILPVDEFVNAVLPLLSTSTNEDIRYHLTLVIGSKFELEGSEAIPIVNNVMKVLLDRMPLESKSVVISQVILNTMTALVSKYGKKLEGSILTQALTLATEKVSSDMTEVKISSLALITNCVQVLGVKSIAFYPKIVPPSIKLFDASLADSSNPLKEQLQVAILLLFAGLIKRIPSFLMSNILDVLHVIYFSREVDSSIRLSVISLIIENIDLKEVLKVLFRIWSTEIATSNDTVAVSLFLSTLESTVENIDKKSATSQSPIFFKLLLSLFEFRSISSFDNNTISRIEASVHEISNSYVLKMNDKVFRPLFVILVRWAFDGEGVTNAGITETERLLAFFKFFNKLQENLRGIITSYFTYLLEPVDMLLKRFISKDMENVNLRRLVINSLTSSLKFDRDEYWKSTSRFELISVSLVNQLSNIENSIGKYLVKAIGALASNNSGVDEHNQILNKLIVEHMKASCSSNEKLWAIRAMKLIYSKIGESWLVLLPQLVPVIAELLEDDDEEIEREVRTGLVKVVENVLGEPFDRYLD

Test [1] deals with T1, Utp10-3C-GFP (S. cerevisiae, UniProt P42945 1-1769).
T1 construct: Utp10, S. cerevisiae, subunit of UtpA (200 kDa); GFP is joined through a 3C protease site; it holds the protein on the beads in a1-a3 and is cleaved off by 3C on elution, so it is absent in the SEC step and in the DSS cross-linking (a6); also called Utp10-GFP; Utp10-sbp-H14-3C-GFP; source: S. cerevisiae YSK32, C-terminal tag integrated in the genome, endogenous level; captured from lysate on …
In words: pull-down; UtpA held via Utp10-GFP on anti-GFP nanobody sepharose (purified at 200 mM NaCl), then incubated 7 h at 4 °C in buffer with 400 mM NaCl; 3C elution; Coomassie-stained SDS-PAGE.

Test [2] deals with T1, Utp10-3C-GFP. The test is described as follows: pull-down + SEC; endogenous UtpA from YSK32 lysate captured via Utp10-GFP on anti-GFP nanobody sepharose; 50 mM HEPES-NaOH pH 7.6, 200 mM NaCl, 1 mM EDTA, 4 °C; eluted with TEV and 3C protease; Superose 6; peak fraction on Coomassie-stained SDS-PAGE.
Test [3] concerns the target T1, Utp10-3C-GFP. The test is described as follows: pull-down; UtpA held via Utp10-GFP on anti-GFP nanobody sepharose (purified at 200 mM NaCl), then incubated 7 h at 4 °C in buffer with 800 mM NaCl; 3C elution; Coomassie-stained SDS-PAGE.

These are yes or no findings as the source states them, for the method shown. Binding seen in cells or lysates may run through a third protein. Some results given as binding are weak or reduced against the parent protein; the word gives no strength. Tags and fused reporters may be left off the sequences shown.

B1: Utp4 (protein, UniProt Q06679 1-776)
chain: MSSSLLSVLKEKSRSLKIRNKPVKMTSQERMIVHRCRFVDFTPATITSLAFSHKSNINKLTPSDLRLAIGRSNGNIEIWNPRNNWFQEMVIEGGKDRSIEGLCWSNVNGESLRLFSIGGSTVVTEWDLATGLPLRNYDCNSGVIWSISINDSQDKLSVGCDNGTVVLIDISGGPGVLEHDTILMRQEARVLTLAWKKDDFVIGGCSDGRIRIWSAQKNDENMGRLLHTMKVDKAKKESTLVWSVIYLPRTDQIASGDSTGSIKFWDFQFATLNQSFKAHDADVLCLTTDTDNNYVFSAGVDRKIFQFSQNTNKSQKNNRWVNSSNRLLHGNDIRAICAYQSKGADFLVSGGVEKTLVINSLTSFSNGNYRKMPTVEPYSKNVLVNKEQRLVVSWSESTVKIWTMGTDSSTEQNYKLVCKLTLKDDQNISTCSLSPDGQVLVVGRPSTTKVFHLQPVGNKLKVTKLDNDLLLRTSTKLVKFIDNSKIVICSCEDDVFIVDLESEEDEKPQEVELLEVTSTKSSIKVPYINRINHLEVDQNIAVISRGCGVVDILDLKARISKPLARLNNFITAVHINTSRKSVVVITADNKIYEFNMNLNSEAENEDSESVLTQWSKNNTDNLPKEWKTLKENCVGIFSDIENSSRLWFWGATWISRIDFDVDFPINKRRKQKKRTHEGLTITDESNFMNDEEDDEDDDIDMEISENLNVLLNQGNKIKSTDVQRNEESSGHFFFTDKYKPLLFVDLISSNELAIIERNPLTFHSKQKAFIQPKLVF
In the case of B1, the values for the binding result in test [1], in test [2] and in test [3] were “no binding (condition: 400 mM NaCl)”, “binds” and “no binding (condition: 800 mM NaCl)”, respectively.

B2: Utp15-3myc-TEV-mCherry-3FLAG (overexpressed) (natural protein, S. cerevisiae, UniProt Q04305 1-513, looked up)
chain: MSTARPRIITSKAPLLPQQTTPEQRYWRQYTSAQLVKEHNSVTHISFNPQHPHDFAVTSSTRVQIFSSRTRQVIKTFSRFKDVVYSASFRSDGKLLCAGDATGLVSVYDSYNPRTILLSINASTHPTHVTKFHTQDNKILATASDDRVTRLWDISNAYEPQLELTGATDYVRTLSFIPAAPHLVATGSYDGLIRLYDTRSSGSTPIYSLNHDQPVENVIAVSPTQIVSCGGNNFKVWDLTSNKKLYERGNFNKAVTCLDYVENFDSPMQSALIASSLDGHVKVFDPLDNFQVKFGWKFSGPVLSCAVSPSTAQGNRHLVAGLSSGLLAIRTKKKEKRSSDKENAPASFNKNAKSNNFQRMMRGSEYQGDQEHIIHNDKVRSQRRMRAFERNINQFKWSEALDNAFVPGMAKELTLTVLQELRKRGKVRVALYGRDESTLEPLLNWCLKGIEDVRSASIVADWVAVVLELYGNTLESSPVLQELMIDLKTKVRHEIHKSKEAQRIEGMLQLLTS
notes: Utp15, S. cerevisiae, subunit of UtpA; Captured by mCherry in a4; the complex is eluted by TEV cleavage, so mCherry-3FLAG is off in the SEC step (a5); also called Utp15-TEV-mCherry; Utp15-mCherry; source: S. cerevisiae YSK122, overexpressed (galactose promoter); captured from lysate on anti-mCherry nanobody sepharose, TEV elution, SEC; not shown: 3myc, C-terminal, kept; mCherry, C-terminal, kept; …
For B2, the binding entry in test [1] was “binds”; in test [2], “binds”; in test [3] it was “no binding (condition: 800 mM NaCl)”.

B3: Utp9 (natural protein, S. cerevisiae, UniProt P38882 1-575, looked up)
chain: MGSSLDLVASFSHDSTRFAFQASVAQKNNVDIYPLNETKDYVVNSSLVSHIDYETNDMKVSDVIFFGWCSDLIDTQSSNIKRKLDEDEGTGESSEQRCENFFVNGFPDGRIVVYSSNGKDIVNIIKNKKEILGADTDESDIWILDSDKVVKKLQYNNSKPLKTFTLVDGKDDEIVHFQILHQNGTLLVCIITKQMVYIVDPSKRRPSTKYSFEISDAVACEFSSDGKYLLIANNEELIAYDLKEDSKLIQSWPVQVKTLKTLDDLIMALTTDGKINNYKIGEADKVCSIVVNEDLEIIDFTPINSKQQVLISWLNVNEPNFESISLKEIETQGYITINKNEKNNADEADQKKLEEKEEEAQPEVQHEKKETETKINKKVSKSDQVEIANILSSHLEANSTEILDDLMSGSWTEPEIKKFILTKINTVDHLSKIFLTISKSITQNPWNEENLLPLWLKWLLTLKSGELNSIKDKHTKKNCKHLKSALRSSEEILPVLLGIQGRLEMLRRQAKLREDLAQLSMQEGEDDEIEVIEHSNVISNPLQDQASPVEKLEPDSIVYANGESDEFVDASEYKD
notes: Utp9, S. cerevisiae, subunit of UtpA; No tag is named for it in either strain; strains are in Supplementary Data 1; source: endogenous, S. cerevisiae YSK32, co-purified with Utp10-GFP; overexpressed (galactose promoter) in S. cerevisiae YSK122, co-purified with Utp15-mCherry
Take B3: the binding result was “binds” in test [1], “binds” in test [2] and “no binding (condition: 800 mM NaCl)” in test [3].
